Measured values published in PMC11109976, “CSB and SMARCAL1 compete for RPA32 at stalled forks and differentially control the fate of stalled forks in BRCA2-deficient cells” (Nucleic Acids Research, 2024).

Legend:
[1] = target: T1, CSB fragment containing amino acids from 123 to 203 (human, UniProt Q03468-1 123-203); test: MST; RPA32C labelled with RED-tris-NTA (His-tag labelling kit), 100 nM mixed 1:1 with 2-fold serial dilutions of the ligand; 50 mM HEPES pH 8.0, 400 mM NaCl, 10% glycerol, 0.05% Tween-20; incubated 30 min at 37°C, measured at 25°C; three replicates; conditions: both partners purified
T1 construct: CSB, human, residues 123-203; No tag cleavage is described; also called CSB(123-203); source: E. coli SoluBL21, purified (Ni-NTA, cation exchange)

[2] = target: T2, CSB-F fragment carrying RQK-AAA mutations (human, UniProt Q03468-1 123-203, R^176Q^177K^178-AAA); test: as above; conditions: both partners purified
T2 construct: CSB, human, residues 123-203 with R176Q177K178 changed to AAA; in pMCSG7 with a TEV-cleavable N-terminal 6X His-tag; No tag cleavage is described; also called CSB-F-AAA; CSB RQK-AAA(123-203); source: E. coli SoluBL21, purified (Ni-NTA)

Kd [1]: 940 nM | Kd [2]: 4410 nM
B1: RPA32 construct spanning the region […] (domain or fragment)
chain: not shown
modifications: RED-tris-NTA dye on the His tag
notes: RPA32, […] (C-terminal winged helix domain); Cloned by LIC; also called RPA32([…]); C-terminal winged helix domain of RPA32; source: E. coli SoluBL21, purified (Ni-NTA, anion exchange, SEC)
